The test has as its system NCI-H322M lung. The experiment in a line: growth of human tumour cells (NCI), 48 h.

SMILES strings stand for the structures. Values joined by “and” are separate entries in the source; they are usually repeats but may differ in a detail not shown here. Identical values can stand only once.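 96-well plates; 48 h exposure; 5 concentrations. Endpoints by linear interpolation between flanking doses. Not reached: highest tested concentration assigned. GI50: concentration for 50% inhibition of growth. TGI denotes the concentration required for complete inhibition of growth.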 Peptide text beside a SMILES is read from it. * marks the point of attachment. Cbz = O=C(OCc1ccccc1)*; NHNH2 = NN*

Compound `COC(=O)c1c/c(=N\NC(=O)CC(=O)Nc2ccccc2OC)c2ccccc2o1` had a TGI greater than 100 µM.

Compound `Cc1c2ncccc2cc2oc3ccccc3c(=O)c12` showed a TGI greater than 100 µM.

For `N#Cc1ccc(O)c(C2=NCC(c3cccc(Oc4ccccc4)c3)O2)c1` (configuration not stated), the GI50 is 2.02 µM and the TGI is greater than 100 µM. For the compound `C=CCOCCCCC(C(C)=O)C(=O)OC` (configuration not stated), the TGI is greater than 100 µM. In turn, `CC1(CNCc2ccccc2)CC(CCc2ccccc2)N(C(=O)c2ccc([N+](=O)[O-])cc2)C1Cc1ccc(O)cc1` (configuration not stated) showed a TGI of 34.2 µM. In the case of `COc1ccc(-c2cnnc3c(-c4cccc(C(F)(F)F)c4)cnn23)cc1`, the GI50 was 3.87 µM and the TGI is greater than 100 µM. In turn, `O=C(O)CNS(=O)(=O)c1ccc(NCc2ccccc2)cc1` displayed a TGI greater than 100 µM. The same measure, in the same setting: with `COc1ccc(/C=C/CN(C)CCc2ccccc2)cc1OC` the figure was greater than 100 µM; with `O=C(N/N=C/c1cc(Br)cc(Br)c1[O-])c1ccccc1O.O=C(N/N=C/c1cc(Br)cc(Br)c1[O-])c1ccccc1O.[Fe+2]`, 19.9 µM; with `COC12C=C(C)C(CC1)CC2C(=O)O` (configuration not stated), greater than 100 µM.

For the compound `FC(F)(F)c1cccc(Nc2nccc(-c3cnn4nc(-c5ccccc5)ccc34)n2)c1`, the GI50 is greater than 16 µM and the TGI is greater than 25 µM. `CC(=S)N=Cc1c(O)cc(C)oc1=O` returned a TGI greater than 100 µM.

For the compound `Oc1ccc(NCc2nc3ccccc3[nH]2)cc1`, the GI50 was greater than 100 µM and the TGI was greater than 100 µM. `COc1c(Br)cc(CC(N)=O)c(O)c1Br` returned a TGI greater than 100 µM. As to `O=C1CCCCN1CCCCC#Cc1ccccc1C#Cc1ccc([N+](=O)[O-])cc1`, the GI50 was 22.7 µM and the TGI turned out to be 80.9 µM.

Compound `CC1=NN(C(=O)Nc2ccccc2)C(=O)C2CCC(=O)N12` (configuration not stated) showed a TGI greater than 100 µM. `COC(=O)c1ccc(C=Nc2ccc(S(N)(=O)=O)cc2)cc1`: the TGI is greater than 100 µM. Still for that read-out and setting: with `CCOC(=O)/C(C#N)=N\Nc1ccc(-n2c(C)nc3ccccc3c2=O)cc1` the figure was greater than 100 µM; with `CC(C)(C)c1cc(/C=C(\C#N)C(=O)NCCO)cc(C(C)(C)C)c1O`, 71.3 µM. Turning to `C=C1C(=O)O[C@H]2[C@H]1CC/C(Cn1cc(-c3ccc(OC)cc3)nn1)=C\CC[C@@]1(C)O[C@@H]21`, the GI50 is 10.7 µM and the TGI is 23.4 µM. In the case of `COC(=O)[C@]12CC[C@@H](C)[C@H](C)[C@@H]1C1=CC[C@@H]3[C@@]4(C)C/C(=N\O)[C@H](O)[C@@]5(C)COC(=C45)C[C@@]3(C)[C@]1(C)CC2`, the GI50 was 6.33 µM and the TGI came to 21.9 µM. On to `Nc1nc(Cl)c2ncn(Cc3ccc(C45CC6CC(CC(C6)C4)C5)c(O)c3)c2n1`, for which the GI50 was 2.69 µM and the TGI was 12.3 µM.

On to `FC(F)(F)c1ccc2nc3n(c2c1)C(c1c(Cl)cccc1Cl)SC3` (configuration not stated), for which the TGI was 31.4 µM.

`CC(C)(CC(=O)Nc1ccccc1)C(=O)O` came in with a TGI greater than 100 µM. With `N#Cc1ccc(NC(=O)Nc2ccc(Oc3ccc(NC(=O)Nc4ccc(C#N)cc4)cc3)cc2)cc1`, the GI50 is 14 µM and the TGI is greater than 100 µM.

`COc1cc([N+](=O)[O-])cc2c3c(n(C)c12)[C@@]1(C)CCC2c4ccc(OCc5ccccc5)cc4CCC2C1C3` (some centres not stated): the GI50 was 78.5 µM and the TGI is greater than 100 µM. On the same counts, the results for `O=C(/C(Br)=C/c1ccccc1)c1ccccc1` are 14.2 µM and 28.5 µM. On to `CCN(CC)CCOc1ccc(/C(=C(\Cl)c2ccccc2)c2ccccc2)cc1`, for which the GI50 was 6.63 µM and 2.04 µM; the TGI is 13.9 µM and 8.08 µM. `CCOC(=O)C(NC(=O)CC(C)C)(N1CCN(c2cc3c(cc2F)c(=O)c(C(=O)O)cn3C2CC2)CC1)C(F)(F)F` (configuration not stated) registered a TGI greater than 100 µM. Compound `CC1(C(=O)O)CCCC1C(=O)O` (configuration not stated) displayed a TGI greater than 100 µM.

In the case of `CCOC(=O)[C]1([Bi]([CH3])[CH3])N=NC(C(=O)OC)=C1C(=O)OC` (configuration not stated), the GI50 was 71.7 µM and the TGI was greater than 100 µM. `c1ccc(/C(=N/Nc2ccccn2)c2ncccn2)cc1` returned a TGI greater than 100 µM.

For `CN1C(=O)C2(Cc3cn(C45CC67SSC(CO)(C(=O)N6C4Nc4ccccc45)N(C)C7=O)c4ccccc34)SSC1(CO)C(=O)N2C` (configuration not stated), the TGI amounted to 3 µM. `C=C1C(=O)O[C@@]23C1CC[C@@H](C)C2CC[C@@]1(C)OC31` (some centres not stated): the TGI worked out at 54.1 µM.

Compound `O=c1c(-c2ccc(Cl)cc2)nnc2n(Cc3ccccc3)c3ccccc3n12` had a TGI greater than 100 µM.

`Brc1cccc(C=NC23CC4CC(CC(C4)C2)C3)c1`: the TGI is greater than 100 µM.

The compound `COc1cc(/C=C\C(=O)O)ccc1OCc1ccccc1` came in with a TGI greater than 100 µM. Consider `CC/C(=C(/c1ccc(O)cc1)c1ccc(OCCNC)cc1)c1ccccc1`, for which the GI50 is 3.51 µM and the TGI came out at 12 µM. `O=C1C2c3[nH]c4ccccc4c3C3CCCCCCC3C2C(=O)N1c1ccccc1` (configuration not stated) displayed a TGI greater than 100 µM. Consider `CC[C@@H]1CN(C)[C@H]2Cc3c([nH]c4ccccc34)C(=O)C[C@H]1C2C(=O)OC` (some centres not stated), for which the TGI was greater than 100 µM.

`COC1(OC)CCCCC2c3cccc(OC(C)=O)c3C21OC(C)=O` (configuration not stated) gave a TGI greater than 100 µM. With `O=C1C(Cl)N(c2ccccc2[N+](=O)[O-])C1c1c[nH]c2ccccc12` (configuration not stated), the TGI was greater than 100 µM. `[Cl-].[Dy+3].[O-]/N=C(\c1ccccc1)c1ccccn1.[O-]/N=C(\c1ccccc1)c1ccccn1.[O-]/N=C(\c1ccccc1)c1ccccn1`: the GI50 was 26.9 µM and the TGI is greater than 100 µM.

`Cn1c(=O)c2[nH]c(SCc3ccccn3)nc2n(C)c1=S` displayed a TGI greater than 100 µM. With `CC(C)(C)C1C=C(Sc2ccccc2)C(=O)O1` (configuration not stated), the TGI was greater than 100 µM. On the same count and under the same terms, the same measure for `Brc1cc2nn(-c3ccccc3)nc2c2nonc12`: greater than 100 µM; for `CSc1nc2c(c(=O)n1C)N=C(c1ccccc1)[C@H](C(CC(=O)c1ccccc1)c1ccccc1)C(c1ccccc1)N2` (some centres not stated): greater than 100 µM; for `Nc1ccc(S(=O)(=O)Nc2nc3ccccc3nc2N2CCCCC2)cc1`: greater than 100 µM.

On to `Cn1c([O-])nc(-n2cc[n+](C)c2)cc1=O`, for which the TGI was greater than 100 µM. The same measure, in the same setting: with `Brc1ccc2c(-c3csc(-c4c[nH]c5cc(Br)ccc45)n3)c[nH]c2c1` the figure was greater than 82.4 µM; with `COc1ccc2c(c1)CC1=C(O2)c2ccc(OC)cc2OC1`, greater than 100 µM. On the same count and under the same terms, with `O=C(O)C(CS)N=c1c2ccccc2n(O)c2ccccc12` (configuration not stated) the figure was greater than 100 µM; with `COC(=O)C1Cc2c(n(Cc3ccccc3)c3ccccc23)C(CCC(=O)O)N1C(C)C` (configuration not stated), greater than 100 µM.

As to `Cc1ccc(NC(=O)c2cccc(N(C)C)c2)cc1NC(=O)c1ccc(O)cc1`, the GI50 is greater than 74.6 µM and the TGI is greater than 100 µM. `COC(=O)CN1CCSC1=NC#N` displayed a TGI greater than 100 µM. The compound `COc1cc(CN2CCCCC2)cc2cc(C(=O)O)c(=O)oc12` came in with a TGI greater than 100 µM. Take `Cc1cc2[nH]c3c(C#N)c4c(c(=O)n3c2cc1C)CCCC4`: the TGI was greater than 100 µM. For `O=c1/c(=C/c2ccco2)sc2nc3ccccc3n12`, the GI50 was greater than 100 µM and the TGI is greater than 100 µM.

As for `COC(=O)C1CC2(c3ccccc3)C(=O)c3ccccc3N2O1` (configuration not stated), the TGI is greater than 100 µM. For the compound `C=c1c(OC)c(OC)c(O)c2c1=c1cc([N+](=O)[O-])cc(OC)c1=N2`, the TGI is greater than 100 µM. Take `CC1CC(=O)Nc2nc3ccccc3n21` (configuration not stated): the TGI was greater than 100 µM. Still for that read-out and setting: with `CCOC(=O)C(CC#Cc1ccc(C#CCC(NC(C)=O)C(=O)OCC)cc1)NC(C)=O` (configuration not stated) the figure was greater than 100 µM. Compound `NC(N)=NS(=O)(=O)c1ccc(NC(=O)c2ccc3nc4ccccc4c(Nc4ccc(S(=O)(=O)N=C(N)N)cc4)c3c2)cc1` returned a TGI greater than 100 µM. As for `C[C@@H]1OC(O)[C@@H](F)[C@H](O)[C@@H]1O` (some centres not stated), the GI50 was greater than 100 µM and the TGI is greater than 100 µM.

In the case of `NC(CCC(=O)NC(CSSCCCCS(=O)O)C(=O)NCC(=O)O)C(=O)O` (configuration not stated), the TGI is greater than 100 µM. `COC(=O)CC(NC(=O)OCc1ccccc1)C(=O)NC(CC(=O)OC)C(=O)NC(CC(=O)OC)C(=O)NC(CC(=O)OC)C(=O)NC(CC(=O)OC)C(=O)NC(CC(=O)OC)C(=O)NN` (configuration not stated) (Cbz-D(OMe)D(OMe)D(OMe)D(OMe)D(OMe)D(OMe)-NHNH2; configuration not given here) showed a TGI greater than 100 µM. Still for that read-out and setting: the same measure for `O=c1[nH]nc(-c2ccccc2)c2[nH]c(-c3ccccc3)cc12`: greater than 100 µM.

For the compound `N#CSc1c[nH]c2cccc(/C=C/C(=O)/C=C(/C=C/c3cccc4[nH]cc(SC#N)c34)OB(F)F)c12`, the GI50 is 6 µM and the TGI was greater than 42.3 µM. `CC(C)C(=O)NC(=S)Nc1ccc([N+](=O)[O-])cc1C#N` gave a TGI greater than 100 µM.

As to `CC[C@@H]1C(=O)N(C)c2cnc(Nc3ccc(C(=O)NC4CCN(C)CC4)cc3OC)nc2N1C1CCCC1`, the TGI was > 10 µM and 18.1 µM.

On to `Oc1ccc2ccccc2c1N=Nc1nccs1`, for which the GI50 is 5.68 µM and the TGI was greater than 90.1 µM. For `C=C1C(=O)O[C@H]2[C@H]1CC/C(COC(=O)c1ccc3ccccc3c1)=C\CC[C@@]1(C)O[C@@H]21`, the GI50 is 1.7 µM and the TGI turned out to be 3.3 µM. In turn, `COC(=O)/C=C/c1cc(OC)c(OC)c(OC)c1` showed a TGI greater than 100 µM. In the case of `COc1cc(C2NC(=O)c3ccccc3N2)ccc1OCCCCCOc1c(OC)cc(C2=NOC(c3cc(OC)c(OC)c(OC)c3)C2)cc1OC` (configuration not stated), the GI50 is greater than 100 µM and the TGI is greater than 100 µM.

In turn, `O=c1oc2cc(O)ccc2c(O)c1C(c1ccc(C(c2c(O)c3ccc(O)cc3oc2=O)c2c(O)c3ccc(O)cc3oc2=O)cc1)c1c(O)c2ccc(O)cc2oc1=O` returned a TGI greater than 100 µM. As to `CN(C)S(=O)(=O)Nc1nnc(S(N)(=O)=O)s1`, the TGI was greater than 100 µM. On to `COc1ccc(/C=C/c2nccc3ccccc23)cc1OC`, for which the TGI was greater than 10 µM.

Take `CC[C@@]1(O)C(=O)OCc2c1cc1n(c2=O)Cc2c-1nc1cc3c(cc1c2CCl)OCO3`: the GI50 was 0.0648 µM. As for `CCC[CH2][Sn]([CH2]CCC)([O]C(=O)c1cccnc1SC)[O]C(=O)c1cccnc1SC`, the GI50 was 2.09 µM and the TGI came to 4.59 µM. Turning to `Brc1ccc2c(-c3csc(-c4c[nH]c5ccc(Br)cc45)n3)c[nH]c2c1`, the TGI turned out to be 14.6 µM. In the case of `O=C(c1ccccc1)c1nnc(C(=O)c2ccccc2)nn1`, the TGI was greater than 344 µM. Compound `CC1S/C(=N/c2nnc(-c3ccccc3)o2)NC1=O` (configuration not stated) displayed a TGI greater than 100 µM. `NC(=O)C(=CNC(=S)c1ccncc1)C(N)=O` registered a TGI greater than 100 µM. Compound `CCOC(=O)C1=C(OC(OCC)C(CC)[Se]c2ccccc2)CCCC1` (configuration not stated) displayed a TGI greater than 100 µM.

Source of the values: PubChem BioAssay (NCI).
